The RNAGym collection of RNA variant scans (doi:10.1093/nar/gkz1192)
The source gives no read counts; variants with many changes may rest on few reads.

B1: CPEB3 Ribozyme (parent)
chain: UAACAGGGGGCCACAGCAGAAGCGUUCACGUCGCAGCCCCUGUCAGAUUCUGGUGAAUCUGCGAAUUCUGCUGUAUAUCUC

Variants of: B1
Test: self-cleavage, relative activity (ratio to wild type); higher = more cleavage; in vitro, sequencing
In short: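 Relative activity compares each variant's cleaved/total read fraction with that of the unmutated ribozyme. To get these fractions, barcoded CPEB3 ribozyme libraries from rounds of error-prone PCR were transcribed with T7 RNA polymerase for 5 hours at 37°C and then given 15 min of DNase I treatment before EDTA was added. The RNAs were reverse transcribed with template switching and sequenced on Illumina, and DNA sequencing linked barcodes to variants. A minimum of 5 reads applied, and three batches were averaged.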

Variant	self-cleavage
G7U A13G A45U	0.24
G7C A13G G61U C79A	0.05
G7U G30A C34U U80C	0.04
G7U A15G A47G U60A A65G U69C G70C	0.04
G7U A13G C71U	0.27
G7U A18G A21G A45U U54C U78C	0.19
G7C A28G A45C U51A	0.24
G7C U31C U49C U78C	0.23
G7C U25C U26C C71U	0.25
G7C A21G U54C U80A	0.09
G7U A21G U26C C38A G46A U78C U80C	0.12
G8A A13G G19A U60A A64G	0.06
G7U A15C A18G U43C	0.03
G7C G30U U58C A75G	0.05
G8A A15U A28U A45U U51A	0.16
G7U A28C A45U A64G U78C	0.08
G8A A13G A21G U43A U49A U54A U69A	0.04
G7U C17U U48C U58C A64G	0.1
G7U A64U A65G U66C	0.47
G7C C32G G36U U60G U66C	0.05
G7C G10U A13G A75G	0.07

Variant	self-cleavage
G7U C17U G19A U67A	0.06
G7U A18G A20U U25C U31A C39G A56U	0.03
G7U U25C G73A	0.36
G7C A15G C32U U51C A56G U58C A75U	0.03
G7U A20G U48C U54C	0.2
G7C A35G U74C	0.45
G7C A13G U26C A35U U54C A64G U80A	0.03
G7A U43C U58A C68U U78C	0.09
G7C A13G A57G	0.32
G7A U67C C68U	0.13
G7U G42U U48A	0.14
G7A U49A A57C U80C	0.06
G7U A18C G42A	0.17
G7U A18G U41C U49C	0.29
G7C C17G A18G C32U A45C A64G U72C	0.04
G7C A18C A47U U66C U67C A75G	0.19
G7A U54A A56G U67C	0.11
G7U A15G A45C U51C G52C A56G	0.06
G7C U26C A45G U49C A77G	0.03
G8A A13C A28C U49C U69A	0.07
G7U A28G U31A C39G U67A U72C	0.04

Variant	self-cleavage
G7U A56G U74A	0.34
G7U G10A A15U G19U	0.22
G7C U54G A64G U76C	0.19
G8A A13U U41C G46U A64G	0.08
G7C G19A A20U U48A U72A	0.06
G7U A47G U60C G70C U76C	0.12
G7U U48A A56U U72C	0.11
G7U G16C A18U C29G U74A U80C	0.31
G7U A35G U43C	0.18
G7U U25C A56G	0.19
G7U G9C U25C U41C U80C	0.09
G7U G10A C23U U31A A57G U74C	0.04
G7U A35U G55U U76A A77G	0.09
G7U U43C G63A A65G U80C	0.16
G7U A56G U78C	0.16
G7C C39A U41A A56G U60C U78C	0.01
G7U G46A U51C U69A C71U	0.05
G7U A18G U25A U41C	0.06
G7C G8A G30U A47U U54C	0.04
G7U U26C U49C U60C	0.17
G7C G8C U69C	0.17

Variant	self-cleavage
G7C A18C A35U G36A	0.05
G7U A35G U41C A56G U80C	0.06
G7C A35U U54C U58A	0.07
G7C A13U A18U U31C U41G U69A	0.05
G7A U66G A77U	0.06
G7A U48G A64G	0.09
G7U A56G A75G	0.03
G7U A18C A35U	0.2
G7U U25C C34A	0.2
G7U A47G U58G A64U	0.3
G7C A18U A20G U31C	0.35
G7C A15G A20G A21G U43G A56G	0
G7U A28G G63C A64G U80C	0.15
G7U U48C A56G U67C	0.11
G7C A35C U67A U69A A77G	0.11
G7C C37U U58C	0.16
G7U C11A A56G U60C U69A	0.09
G7C A15U U49C U67C U76C	0.12
G7U C11U A35U A45U C62A U69G	0.08
G7U U25C U60A A75G	0.39
